# The list shows a part of the results. Further columns of the screen follow, without active or inactive calls.
# What was measured:
# Test in all cases: Primary Screen for Target Class Profiling of Small Molecule Inhibitors of Methyltransferases
# [1] = molecular target: Glycine N-methyltransferase (Homo sapiens) (UniProt Q14749); settings: purified enzyme, MTase-Glo SAH luminescence; measured here: GNMT inhibition; at 40 µM; stronger effect = lower value
# In short: (§1)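 Each enzyme was assayed with SAM and its substrate. SAH formation detected by MTase-Glo luminescence; single-point 40 uM screen[…].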
# [2] = molecular target: Guanidinoacetate N-methyltransferase (Homo sapiens) (UniProt Q14353); settings: purified enzyme, MTase-Glo SAH luminescence; measured here: GAMT inhibition; at 40 µM; stronger effect = lower value
# In short: as §1
# [3] = molecular target: Histamine N-methyltransferase (Homo sapiens) (UniProt P50135); settings: purified enzyme, MTase-Glo SAH luminescence; measured here: HNMT inhibition; at 40 µM; stronger effect = lower value
# In short: as §1
# [4] = molecular target: Nicotinamide N-methyltransferase (Homo sapiens) (UniProt P40261); settings: purified enzyme, MTase-Glo SAH luminescence; measured here: NNMT inhibition; at 40 µM; stronger effect = lower value
# In short: as §1
# [5] = molecular target: Phenylethanolamine N-methyltransferase (Homo sapiens) (UniProt P11086); settings: purified enzyme, MTase-Glo SAH luminescence; measured here: PNMT inhibition; at 40 µM; stronger effect = lower value
# In short: as §1
# On the % scale 0 is the no-effect control and ±100 the full control effect.
Structure (SMILES),"activity change, negative = inhibition [1] [%]","activity change, negative = inhibition [2] [%]","activity change, negative = inhibition [3] [%]","activity change, negative = inhibition [4] [%]","activity change, negative = inhibition [5] [%]"
CCCN1C(=O)c2c(C(=O)Nc3cc(Cl)ccc3OC)ncn2CC1(C)C(=O)NC1CCCC1 (stereo not given),-1.43,0.668,7.67,3.81,8.47
c1ccc(CN2CCn3c4c(c5ccccc53)CCCC42)cc1 (stereo not given),-5.5,-1.09,-9.67,-7.81,-12.8
CCC(C)NC(=O)c1ccc2c(=O)n(C)c3nn(CC(=O)Nc4ccc(C)cc4C)c(=O)n3c2c1 (stereo not given),6.73,0,9.13,3.83,3.73
COc1cccc(Cn2nc3n(CCC(C)C)c(=O)c4ccc(C(=O)NC5CCCCC5)cc4n3c2=O)c1,4.39,1.21,8.77,-1.66,7.09
Cc1ccc2c(C(=O)NCc3ccc(Cl)cc3)cnn2c1,-9.76,-4.71,-3.28,-8.13,-6.58
CCOc1ccc(CCN2C(=O)c3ccc(-c4ccco4)n3CC2(C)C(=O)NC2CCCC2)cc1 (stereo not given),-0.19,3.92,4.18,-1.83,-1.71
COc1ccc2nc(S(=O)(=O)Cc3ncc(C)c(OC)c3C)[nH]c2c1,-2.04,-7.72,0.439,-20.7,-2.08
CCCSCCCN1C(=O)c2cc3oc(C)cc3n2CC1(C)C(=O)NC1CCCCCCC1 (stereo not given),-1.27,0,8.66,-1.79,-4.21
O=C(Nc1ccc2c(c1)OCCO2)N1CCCC(CN2CCOCC2)CC1 (stereo not given),-3.1,2.54,-1.28,0.751,-7.15
CC1(C)CC[C@]23CO[C@@]4(CCC5[C@@]6(C)CC[C@H](O[C@@H]7OC[C@H](O[C@@H]8O[C@H](CO)[C@@H](O)[C@H](O)[C@H]8O)[C@H](O)[C@H]7O[C@@H]7O[C@H](CO)[C@@H](O[C@@H]8O[C@H](CO)[C@@H](O)[C@H](O)[C@H]8O)[C@H](O)[C@H]7O)[C@@](C)(CO)C6CC[C@@]5(C)[C@]4(C)C[C@H]2OC2OCC(O)C(O)C2O)C3C1 (stereo not given in full),4.06,7.63,8.82,-0.769,3.28
COC(=O)c1cc2n(n1)CC(C)(C(=O)NC1CCCCC1)N(c1ccc(Cl)cc1C)C2=O (stereo not given),-2.96,1.16,-0.251,-5.73,-1.38
CCCN1C(=O)c2c(C(=O)NCc3cccc(Br)c3)ncn2CC1(C)C(=O)NCc1ccccc1 (stereo not given),-2.23,0,10.6,10.1,5.92
COc1ccc(CCc2nc3cc(-c4c(C)noc4C)ccc3n2CC(C)N2CCOCC2)cc1Cl (stereo not given),-4.85,-4.58,4.47,-45.8,-1.77
O=C(O)CCC(=O)N1Cc2ccccc2CC2(CCCN(CC3CCOCC3)C2)C1 (stereo not given),-4.41,-12.2,-2.21,-7.21,-6.16
CCCn1c(C)cnc1CC1CCN(C(=O)NCc2ccc(OC)cc2)C1 (stereo not given),-0.802,-0.581,-52.7,-1.65,-1.27
COc1ccc(Cl)cc1N1C(=O)c2cc3ccccc3n2CC1(C)C(=O)NC1CCCC1 (stereo not given),8.05,0,8.03,8.7,4.01
CCOc1ccccc1NC(=O)N1Cc2c(sc3c2CCCC3)-n2cccc2C1c1cccc(F)c1 (stereo not given),-6.89,0,-0.072,0.903,-1.69
COCCN1CC2(CCOC2)N(C2CCN(C(=O)c3ccc(OC)cc3)CC2)C1=O (stereo not given),-2.22,0.172,-0.133,0.467,1.76
CCC(C)NC(=O)Cn1nc2nc(Nc3ccc(F)cc3)ccn2c1=O (stereo not given),-14.8,0,-11.6,-10.1,-11.6
COc1ccc(CCNC(=O)c2cc3n(n2)CC(C)(C(=O)NC2CCCCC2)N(C)C3=O)c(OC)c1 (stereo not given),-5.15,-6.96,-0.07,-6.73,-5.94
Cn1c(=O)n(C)c2cc(S(=O)(=O)NCCc3ccc(Cl)cc3)ccc21,7.17,0,4.82,0.275,1.4
CCOc1cccc(C2c3cccn3-c3sc4c(c3CN2C(=O)NC2CCCC2)CCCC4)c1 (stereo not given),-4.43,0,1.62,-2.42,-0.495
Cc1nn(C)c(C)c1CCC(=O)N1CCC(C2CCN(S(C)(=O)=O)CC2)C1 (stereo not given),-1.01,-0.814,1.22,2.79,2.12
CCOC(=O)c1cc2n(n1)CC(C)(C(=O)NC1CCCC1)N(Cc1ccc(C)cc1)C2=O (stereo not given),1.74,0,1.66,1.1,3.61
CC1(C(=O)NCc2ccccc2)Cn2c(cc3ccccc32)C(=O)N1Cc1ccc(F)cc1 (stereo not given),-4.94,2.8,-4.73,-1.53,-3.25
CN(C)C(=O)c1nc2sccn2c1-c1ccc(C(F)(F)F)cc1,-3.24,-8.57,-1.72,-11.7,3.25
Cc1cc2c(cc1S(=O)(=O)N1CCN(c3ccccc3)CC1)n(C)c(=O)n2C,-5.87,0.484,-15.1,-13.3,-9.76
CC1(C(=O)NCc2ccccc2)Cc2ccccc2C(=O)N1Cc1ccc(C(F)(F)F)cc1 (stereo not given),1.04,3.54,-3.9,-4.77,-4.19
Cc1cccc(N2C(=O)c3cc4sccc4n3CC2(C)C(=O)NC2CCCCCC2)c1C (stereo not given),3.25,1.34,7.45,0.898,0.381

# Reference: PubChem BioAssay AID1745853 (National Center for Advancing Translational Sciences (NCATS), 2022)
